{
  "source": "PubChem BioAssay AID1347165",
  "about": "(National Center for Advancing Translational Sciences (NCATS), 2019)",
  "note": "About 5,700 (2.6%) of roughly 220,000 compounds were called active. Inconclusive means that the source gave no clear call. Such entries were picked first, then a sample of the others. The call rests on the fitted dose curve; in most records, active means well fitted inhibition curve with a large enough effect; inconclusive means small, poorly fitted or top-dose-only effect; inactive means no such curve, though single readings can be large or run the other way. A potency beside an inconclusive call is a rough fit, not a confirmed value. Potency means the concentration at half of the fitted maximal effect; tags describe the fitted curve by direction and shape.",
  "data": [
    {"target": "Lysine-specific demethylase 5B (Homo sapiens) (UniProt Q9UGL1)", "sequence (Q9UGL1 whole entry, looked up)": "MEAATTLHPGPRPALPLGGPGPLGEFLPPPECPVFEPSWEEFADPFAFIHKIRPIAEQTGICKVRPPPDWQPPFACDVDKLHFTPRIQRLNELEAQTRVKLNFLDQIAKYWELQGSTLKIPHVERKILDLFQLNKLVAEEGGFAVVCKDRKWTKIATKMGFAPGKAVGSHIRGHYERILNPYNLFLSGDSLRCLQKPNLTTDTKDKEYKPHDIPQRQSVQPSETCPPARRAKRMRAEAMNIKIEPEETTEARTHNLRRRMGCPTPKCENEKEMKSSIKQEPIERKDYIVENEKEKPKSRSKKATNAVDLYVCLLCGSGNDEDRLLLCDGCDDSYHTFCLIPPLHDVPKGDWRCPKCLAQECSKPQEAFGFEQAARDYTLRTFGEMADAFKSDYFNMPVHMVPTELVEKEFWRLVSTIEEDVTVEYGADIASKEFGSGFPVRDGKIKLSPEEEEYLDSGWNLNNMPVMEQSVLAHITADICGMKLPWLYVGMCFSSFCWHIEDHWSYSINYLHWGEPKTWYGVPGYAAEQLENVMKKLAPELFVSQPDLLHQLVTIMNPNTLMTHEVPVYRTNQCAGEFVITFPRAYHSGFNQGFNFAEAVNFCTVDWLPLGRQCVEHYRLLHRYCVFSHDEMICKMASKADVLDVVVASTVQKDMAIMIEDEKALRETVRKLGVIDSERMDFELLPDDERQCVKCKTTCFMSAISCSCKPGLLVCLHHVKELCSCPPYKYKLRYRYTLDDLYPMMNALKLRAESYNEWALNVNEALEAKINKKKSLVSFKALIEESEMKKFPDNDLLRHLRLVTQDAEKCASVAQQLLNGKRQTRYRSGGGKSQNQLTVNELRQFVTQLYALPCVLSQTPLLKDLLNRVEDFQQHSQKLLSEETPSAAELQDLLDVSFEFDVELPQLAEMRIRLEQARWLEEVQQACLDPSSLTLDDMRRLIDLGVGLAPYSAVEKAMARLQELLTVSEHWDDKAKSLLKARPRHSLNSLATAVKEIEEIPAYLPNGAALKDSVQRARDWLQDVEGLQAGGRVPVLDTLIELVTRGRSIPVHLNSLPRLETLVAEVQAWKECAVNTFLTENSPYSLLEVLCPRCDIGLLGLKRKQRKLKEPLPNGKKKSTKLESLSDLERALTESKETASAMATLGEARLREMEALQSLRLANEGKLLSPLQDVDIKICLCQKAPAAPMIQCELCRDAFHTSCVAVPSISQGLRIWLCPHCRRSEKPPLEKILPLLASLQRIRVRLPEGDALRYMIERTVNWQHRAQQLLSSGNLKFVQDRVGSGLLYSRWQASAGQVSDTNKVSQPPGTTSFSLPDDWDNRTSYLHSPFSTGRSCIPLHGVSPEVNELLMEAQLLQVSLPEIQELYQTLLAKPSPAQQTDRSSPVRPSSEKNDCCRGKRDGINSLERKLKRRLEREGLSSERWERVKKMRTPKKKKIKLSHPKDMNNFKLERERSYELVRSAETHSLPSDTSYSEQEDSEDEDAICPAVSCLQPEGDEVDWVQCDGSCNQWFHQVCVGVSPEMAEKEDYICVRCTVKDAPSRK", "assay": "Primary screen for KDM5B Histone Demethylases FDH-coupled qHTS; further: nearly all actives have a fitted effect of over 70% in size; on activity change, negative = inhibition: 0% is about no effect", "conditions": "FDH-coupled NADH fluorescence (FDH is formaldehyde dehydrogenase); activity change, negative = inhibition: at 57.7 µM (top of the series) unless noted", "outline": "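qHTS format, multiple compound concentrations. Buffer 50 mM HEPES pH 7.5/0.01% Tween-20; 200 nM KDM5BΔAP final; 10 min compound preincubation; substrate-mix levels 12.5 µM peptide, 25 µM α-KG, 0.25 mM NAD⁺; 30 min RT; ΔRFU.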", "values": [
      {"compound": "CCCc1nnc([C@H]2CCN(C(=O)COC)C2)o1", "Potency": "inconclusive: 35.5 µM [inhibitor, partial curve]"},
      {"compound": "Cc1ccc(NC(=O)Cn2c(N3CCC(C)CC3)nc(C)cc2=O)cc1", "Potency": "inconclusive: 12.6 µM [inhibitor, partial curve, poor fit]"},
      {"compound": "CN1CCC(C(=O)N2Cc3ccccc3CC3(CCCN(CC4CCNC4)C3)C2)CC1", "note": "(centres undefined)", "Potency": "inconclusive: 79.4 µM [inhibitor, partial curve]"},
      {"compound": "O=C1Cc2c(-c3cc4ccccc4o3)n[nH]c2CN1Cc1ccccc1", "Potency": "inconclusive: 50.1 µM [inhibitor, single point]"},
      {"compound": "COCC1CN(C2CCC2)CC12CCN(C(=O)c1ccc(OC)cc1)CC2", "note": "(centres undefined)", "Potency": "inconclusive: 17.8 µM [inhibitor, partial curve]"},
      {"compound": "COc1ccc(CCC(=O)Oc2ccc3c(c2)OCO3)cc1", "activity change, negative = inhibition": "inactive: 11%"},
      {"compound": "CN(c1ccccc1)c1ccc2c(n1)CN(Cc1ccccc1)C(=O)CO2", "Potency": "active: 35.5 µM"},
      {"compound": "C/C(=N/NC(N)=S)C1=CC(C)(C)CCC1", "Potency": "inconclusive: 10 µM [inhibitor, partial curve, poor fit]"},
      {"compound": "COc1ccc(-c2cc(C(=O)NC3CCCC3)no2)cc1", "activity change, negative = inhibition": "inactive: -11.3%"},
      {"compound": "O=C(Cc1cccc(C(F)(F)F)c1)NCCc1ccccn1", "activity change, negative = inhibition": "inactive: 7.9%"},
      {"compound": "Cc1ccc(/C=C/C(=O)N(Cc2ccco2)Cc2ccco2)s1", "activity change, negative = inhibition": "inactive: -26.6%"},
      {"compound": "Cc1oc2ncnc(N3CCCCC3)c2c1C(=O)N1CCN(c2cccc(C(F)(F)F)c2)CC1", "activity change, negative = inhibition": "inconclusive: -33.9% [inhibitor]"},
      {"compound": "CC(C)Oc1ccc(CNC(=O)c2nnn3cc(-c4ccccc4)[nH]c(=O)c23)cc1", "Potency": "inconclusive: 28.2 µM [inhibitor, partial curve, poor fit]"},
      {"compound": "COc1cccc(NC(=O)N2CCC(OC3CCN(S(C)(=O)=O)CC3)CC2)c1", "activity change, negative = inhibition": "inactive: 21.6%"},
      {"compound": "Cc1ccc(-c2cc(N3CCCN(C(=O)Cc4cccs4)CC3)n[nH]2)cc1C", "Potency": "inconclusive: 25.1 µM [inhibitor, partial curve, poor fit]"},
      {"compound": "COc1ccc(-c2nc(C3CC(=O)N(c4ccc(OC)c(OC)c4)C3)no2)cc1OC", "note": "(centres undefined)", "Potency": "inconclusive: 20 µM [inhibitor, partial curve, poor fit]"},
      {"compound": "CC(NC(=O)CCc1ncc(-c2ccc(F)cc2F)o1)c1ccc2c(c1)OCO2", "note": "(centres undefined)", "activity change, negative = inhibition": "inactive: -5.07%"},
      {"compound": "CCC(=O)Oc1ccc(/C=C(\\C#N)c2nc3ccccc3[nH]2)cc1OC", "Potency": "inconclusive: 31.6 µM [inhibitor, partial curve, poor fit]"},
      {"compound": "COc1ccc(-c2cc(C(F)(F)F)nc(S(=O)(=O)CCCC(=O)Nc3cccc(O)c3)n2)cc1OC", "Potency": "inconclusive: 25.1 µM [inhibitor, single point]"},
      {"compound": "N#Cc1nc(-c2ccc(F)cc2)oc1N1CCCCC1", "Potency": "inconclusive: 10 µM [inhibitor, partial curve, poor fit]"},
      {"compound": "CCc1ccc(NCc2cc3cc4c(cc3n(CC(=O)Nc3ccc(C)cc3)c2=O)OCO4)cc1", "Potency": "inconclusive: 8.91 µM [inhibitor, partial curve, poor fit]"},
      {"compound": "Cc1cccc(C(=O)N2CCC(N3CC4CC(C3)[C@H]3CCCC(=O)N3C4)CC2)c1", "note": "(some centres undefined)", "Potency": "inconclusive: 15.8 µM [inhibitor, partial curve]"},
      {"compound": "CCC(=O)N1C[C@@H]2CCCN3CCC[C@@H]([C@H]23)[C@H]1CCCC(=O)Nc1ccccc1", "Potency": "inconclusive: 31.6 µM [inhibitor, partial curve, poor fit]"},
      {"compound": "Cc1cccc(-c2nc(C#N)c(N3CCOCC3)o2)c1", "Potency": "inconclusive: 1.78 µM [inhibitor, partial curve, poor fit]"},
      {"compound": "CCOc1ccc2c(c1)cc(C(=O)NCCOc1ccccc1)n2C", "Potency": "inconclusive: 39.8 µM [inhibitor, single point]"},
      {"compound": "CCn1c2ccccc2c2cc(CN3CCN(Cc4ccccc4F)CC3)ccc21", "Potency": "inconclusive: 7.94 µM [inhibitor, partial curve, poor fit]"},
      {"compound": "Cn1nc(C(=O)OCc2nc(-c3cccc(F)c3)no2)c2ccccc21", "activity change, negative = inhibition": "inactive: 4.91%"},
      {"compound": "O=C(N/N=C/c1cccc(O)c1)c1ccccc1O", "Potency": "inconclusive: 25.1 µM [inhibitor, single point]"},
      {"compound": "CC(C)Sc1oc(-c2cccs2)nc1S(=O)(=O)c1ccc(Cl)cc1", "Potency": "inconclusive: 28.2 µM [inhibitor, partial curve, poor fit]"},
      {"compound": "O=C(O)CCCC(=O)N1Cc2ccccc2CC2(CCCN2Cc2ccccc2)C1", "note": "(centres undefined)", "Potency": "inconclusive: 79.4 µM [inhibitor, partial curve]"},
      {"compound": "CCC(C)(C)C1CCc2c(sc(NC(=O)CC(C)C)c2C#N)C1", "note": "(centres undefined)", "activity change, negative = inhibition": "inactive: -15.9%"},
      {"compound": "N#CC(c1nc2ccccc2nc1NC1CCCC1)S(=O)(=O)c1ccc(F)cc1", "note": "(centres undefined)", "Potency": "inconclusive: 12.6 µM [inhibitor, partial curve, poor fit]"},
      {"compound": "O=C(Cc1ccc(Cl)cc1)Nc1ccc2nn(-c3ccc(Cl)cc3)nc2c1", "Potency": "inconclusive: 3.55 µM [inhibitor, full curve, poor fit]"},
      {"compound": "COCCCNc1nccc(C2(c3ccccc3Cl)CCNCC2)n1", "Potency": "inconclusive: 31.6 µM [inhibitor, partial curve, poor fit]"},
      {"compound": "CCN1CCn2c(nc3cc(NC(=O)Cn4nc(C)c5ccccc5c4=O)ccc32)C1", "Potency": "inconclusive: 28.2 µM [inhibitor, partial curve, poor fit]"},
      {"compound": "Cc1ccc(S(=O)(=O)/C(C#N)=C\\c2ccc(F)cc2)cc1", "activity change, negative = inhibition": "inactive: 23.4%"},
      {"compound": "CN(C)c1cccc(C(=O)Nc2ccc3ncnc(N4CCCCC4)c3c2)c1", "Potency": "inconclusive: 20 µM [inhibitor, single point]"},
      {"compound": "COc1ccc(C(=O)N[C@@H]2CN(S(C)(=O)=O)C[C@H]2CN(C)C)cc1OC", "Potency": "inconclusive: 22.4 µM [inhibitor, partial curve, poor fit]"},
      {"compound": "COc1ccc(-c2[nH]c3ccccc3c2SCCNC(=O)c2cc(OC)c(OC)c(OC)c2)cc1", "Potency": "inconclusive: 17.8 µM [inhibitor, partial curve, poor fit]"},
      {"compound": "N#Cc1nc(-c2ccc(F)cc2)oc1N1CCN(Cc2ccccc2)CC1", "Potency": "inconclusive: 35.5 µM [inhibitor, single point]"},
      {"compound": "COc1ccccc1CNC(=O)CCC(=O)N1CC2CCCN2c2ccccc21", "note": "(centres undefined)", "Potency": "inconclusive: 35.5 µM [inhibitor, single point]"},
      {"compound": "Cc1ccc(C(=O)CC(SCC(=O)O)c2ccc(Cl)cc2)cc1", "note": "(centres undefined)", "activity change, negative = inhibition": "inactive: 26.3%"},
      {"compound": "O=C(Cn1cccc1-c1nc(-c2ccccc2)no1)Nc1ccc2c(c1)OCCO2", "activity change, negative = inhibition": "inactive: 13%"},
      {"compound": "COc1ccc(-c2cnc3n[nH]c(-c4ccc(F)cc4C)c3n2)cc1OC", "Potency": "active: 31.6 µM"},
      {"compound": "NC(=O)CCN1CCc2onc(-c3ccccc3F)c2C1", "Potency": "inconclusive: 31.6 µM [inhibitor, partial curve, poor fit]"},
      {"compound": "O=C(NCCCN1CCc2ccccc2C1)C1CCc2ncc(-c3ccc(F)cc3)n2C1", "note": "(centres undefined)", "Potency": "inconclusive: 15.8 µM [inhibitor, partial curve, poor fit]"},
      {"compound": "CCCn1c2ccccc2c2cnn(CC(=O)N(C)c3ccc(F)cc3)c(=O)c21", "Potency": "inconclusive: 25.1 µM [inhibitor, partial curve, poor fit]"},
      {"compound": "O=C(O)C(NCc1ccco1)c1c[nH]c2ccccc12", "note": "(centres undefined)", "activity change, negative = inhibition": "inactive: -11%"},
      {"compound": "COCCNC(=O)c1nc2c(o1)CCN(Cc1cccc(F)c1F)CC2", "Potency": "inconclusive: 28.2 µM [inhibitor, partial curve, poor fit]"},
      {"compound": "Cc1cc(=O)oc2c(C)c(OCc3nn[nH]n3)ccc12", "Potency": "inconclusive: 12.6 µM [inhibitor, partial curve, poor fit]"},
      {"compound": "CCC1CCCCN1C(=O)Cn1c(=O)n(CCCCCC(=O)NCc2ccccc2)c(=O)c2sccc21", "note": "(centres undefined)", "Potency": "inconclusive: 25.1 µM [inhibitor, partial curve, poor fit]"},
      {"compound": "CC#CCn1cc2c3c(cccc31)[C@H](CC(C)C)N[C@H](C(=O)N1CCN(CCO)CC1)C2", "Potency": "inconclusive: 31.6 µM [inhibitor, partial curve, poor fit]"},
      {"compound": "COc1cc(OC)c(C(=O)NC2CCCc3ccccc32)cc1OC", "note": "(centres undefined)", "Potency": "inconclusive: 25.1 µM [inhibitor, single point]"},
      {"compound": "O=C(NCc1ccco1)C1CC(c2ccccc2)CN(C(=O)C2CCCC2)C1", "note": "(centres undefined)", "activity change, negative = inhibition": "inactive: -17.8%"},
      {"compound": "COc1ccc(-c2noc(-c3nc(Cc4ccccc4)no3)n2)cc1", "Potency": "active: 31.6 µM"},
      {"compound": "COc1cccc(NC(=O)c2ccc3nc(CCc4ccccc4)oc3c2)c1", "Potency": "inconclusive: 31.6 µM [inhibitor, partial curve, poor fit]"},
      {"compound": "COc1ccc(Cl)cc1NC(=O)c1c(NCc2ccc(C)o2)sc2c1CCCCC2", "Potency": "inconclusive: 15.8 µM [inhibitor, partial curve, poor fit]"},
      {"compound": "Cc1nc2scc(CC(=O)NCc3ccco3)n2c(=O)c1-c1cc(C)n(-c2ccccc2F)n1", "Potency": "active: 28.2 µM"},
      {"compound": "O=C(NCCc1nc(-c2ccccc2)cs1)c1ccc2nccn2c1", "Potency": "inconclusive: 3.55 µM [inhibitor, partial curve, poor fit]"},
      {"compound": "CCCOc1ccc(NC(=O)C(C)Oc2ccc(C)c(C)c2)c2cccnc12", "note": "(centres undefined)", "activity change, negative = inhibition": "inactive: -2.5%"},
      {"compound": "CC1CCN(S(=O)(=O)c2cn(CC(=O)Nc3cccc(C(F)(F)F)c3)c(=O)c3ccccc23)CC1", "Potency": "inconclusive: 15.8 µM [inhibitor, partial curve, poor fit]"},
      {"compound": "O=C(CSc1ccccc1)N1CCc2c([nH]c3ccccc23)C1c1ccc(F)cc1", "note": "(centres undefined)", "activity change, negative = inhibition": "inactive: -28.7%"},
      {"compound": "CCOC(=O)c1cnn(-c2ccc(C(=O)Nc3cc(OC)c(OC)c(OC)c3)cc2)c1N", "Potency": "inconclusive: 6.31 µM [inhibitor, partial curve, poor fit]"},
      {"compound": "COc1cccc(-c2cc(C3CCN(C(=O)Nc4ccc(F)cc4F)CC3)[nH]n2)c1", "activity change, negative = inhibition": "inactive: -11.6%"}
    ]}
  ]
}
